Source: PubChem BioAssay AID686970 (National Center for Advancing Translational Sciences (NCATS), 2013)
Screen size: about 360,000 compounds; about 6,000 (1.7%) were called active. The inconclusive results got no clear call from the source; some entries with a clear call stand among them for comparison. Calls follow the shape of the dose curve; as a rule, active = well fitted cell-killing curve with a large enough effect; inconclusive = small, poorly fitted or top-dose-only effect, or effect the other way; inactive = flat fitted curve, though single readings scatter. Potencies of inconclusive entries are left out as doubtful fits.

Assay: qHTS for induction of synthetic lethality in tumor cells producing 2HG: qHTS for the HT-1080-NT fibrosarcoma cell line;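 also: NT is the 2HG producing partner of a matched IDH1 knockdown line; nearly all actives have a fitted effect of over 55% in size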;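 as to activity, negative = less viability: 0% = DMSO-treated cells and -100% = media-only wells without cells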
Conditions: HT-1080-NT fibrosarcoma viability, CellTiter-Glo ATP luminescence, 48 h; activity, negative = less viability: at 46.1 µM (top of the series) unless noted
How it was run: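 Luminescent CellTiter-Glo readout after 48 hours of compound exposure at 37 degrees C defined viability of HT-1080-NT cells. Activity was normalized to DMSO wells and cell-free media wells; concentration-response curves were fitted and assigned curve classes.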
Potency is read from the fitted curve at half-maximal effect; tags tell the direction and shape of the fitted curve.

Row | SMILES | Potency | activity, negative = less viability
1 | CC1(C)Cc2c(cnn2-c2ccccc2)-c2c1c1ccccc1n2CC(O)CBr (centres undefined) | inconclusive [cytotoxic, single point] | 
2 | CCOC(=O)CCc1c(C)c2ccc3c(c2oc1=O)CN(CCCO)CO3 |  | inactive: -0.374%
3 | NC(=O)[C@@H]1CC2(CC(c3cccc(NC(=O)COc4ccc(Cl)cc4)c3)=NO2)CN1C(=O)COc1ccc(Cl)cc1 (some centres undefined) | inconclusive [cytotoxic, single point] | 
4 | Cc1ccc(NC(=O)NNC(=O)Cn2nc(-c3ccccc3)c(-c3ccccc3)c(C#N)c2=O)cc1 | active: 4.61 µM | 
5 | CCOC(=O)c1c2c(n(C)c1C)C(=O)C(=O)c1ccc(Br)cc1-2 | inconclusive [cytotoxic, single point] | 
6 | Cc1ccc(Nc2nc(N)nc(CN3CCN(Cc4ccc5c(c4)OCO5)CC3)n2)cc1C | inconclusive [cytotoxic, single point] | 
7 | Nc1nnc(N2CCCCC2)s1 | inconclusive [cytotoxic, full curve, poor fit] | 
8 | C[C@H](NC(=O)c1nc[nH]c1C(=O)N[C@@H](CCCCNC(=O)OC(C)(C)C)C(=O)OC(C)(C)C)c1ccccc1 | inconclusive [cytotoxic, single point] | 
9 | CCOC(=O)c1c(NC(=S)N2CCN(C)CC2)sc2c1CCN(C(=O)OCC)C2 | active: 20.6 µM | 
10 | Cc1ccc(SCCN2CCC(C(C)(C)C)CCC2=O)cc1 (centres undefined) |  | inactive: -7.7%
11 | CCOc1ccc(Nc2c3ccccc3nc3ccccc23)cc1 | active: 16.4 µM | 
12 | O=C(CC1Oc2ccccc2NC1=O)NCCCN1CCCC1=O (centres undefined) | inconclusive [rising, single point] | 
13 | COc1ccc(N2CC(O)=C(c3nc(-c4ccc(Br)cc4)cs3)C2=N)cc1 |  | inactive: 11.8%
14 | COc1cccc(CNC(=S)Nc2ccc3c(c2)c(=O)n(C)n3Cc2ccc(F)cc2)c1 | inconclusive [cytotoxic, single point] | 
15 | CNC(=O)/C=C1\NC(C)(C)Cc2ccccc21 | inconclusive [cytotoxic, single point] | 
16 | O=C(NNC(=S)Nc1ccc(F)c(Cl)c1)c1ccccc1Br | inconclusive [cytotoxic, single point] | 
17 | Cc1cccc(-c2cnc(C(O)c3ccc(-c4ccccc4)cc3)[nH]2)c1 (centres undefined) | inconclusive [cytotoxic, single point] | 
18 | CC1CCCC(C)N1C(=O)COC(=O)c1ccccc1C(=O)c1ccccc1 (centres undefined) |  | inactive: 10.5%
19 | Cc1cc(C(=O)N2CCC(Cc3ccccc3)CC2)no1 | inconclusive [rising, partial curve] | 
20 | O=C1OCCN/C1=C\C(=O)c1ccc(Cl)cc1 | inconclusive [rising, full curve, poor fit] | 
21 | Cc1ccc(-n2[nH]c(C)c(/C=N/Nc3ccc([N+](=O)[O-])cc3[N+](=O)[O-])c2=O)cc1C | inconclusive [cytotoxic, single point] | 
22 | O=C(O)c1cc(-c2ccc3c(c2)OCCO3)n[nH]1 |  | inactive: 13.7%
23 | C=Cc1ccc(Cn2c(C)c(C(=O)NCc3ccc(Cl)c(Cl)c3)sc2=O)cc1 | inconclusive [cytotoxic, single point] | 

Row | SMILES | Potency | activity, negative = less viability
24 | Cc1cccc(OCC(=O)NNC(=O)C2CCN(c3ncnc4sc(C)c(C)c34)CC2)c1 |  | inactive: 5.16%
25 | Fc1ccc(CCNC(=S)Nc2ccc(F)cc2)cc1 |  | inactive: 3.21%
26 | CCCCn1c(SCC(=O)Nc2ccccc2C(F)(F)F)nc2ccsc2c1=O |  | inactive: -0.601%
27 | COc1ccc(CNC(=O)c2nnn(-c3cccc(C(F)(F)F)c3)c2N)cc1 |  | inactive: -0.508%
28 | CC1(C)CC(=O)C(C=NCCN2CCN(C(=S)Nc3ccc(F)cc3)CC2)=C(O)C1 | inconclusive [cytotoxic, partial curve] | 
29 | Cc1cc(C)c2sc(N(CCCN(C)C)C(=O)CN3C(=O)c4ccccc4C3=O)nc2c1 | inconclusive [cytotoxic, single point] | 
30 | CCN1c2ccccc2NC2C1C(C(C)=O)C(=O)N2c1ccc(Cl)cc1 (centres undefined) | inconclusive [cytotoxic, single point] | 
31 | COc1cccc(C(=O)Nc2c[nH]c(=O)[nH]c2=O)c1 |  | inactive: 5.12%
32 | Cc1ccc(C)c(CSc2nc3[nH]ncc3c(=O)[nH]2)c1 | active: 1.3 µM | 
33 | CC1(C)N=C(N)N=C(N)N1c1ccc(OCC(=O)N2CCOCC2)c(Cl)c1 | active: 0.517 µM | 
34 | O=C1C=C(c2ccccc2)C[C@H](c2cccs2)[C@H]1n1nnc([N+](=O)[O-])n1 | active: 14.6 µM | 
35 | CC1(C(=O)NS(=O)(=O)c2ccccc2)CCN1C(=O)CC1CC1 (centres undefined) |  | inactive: 20.3%
36 | COc1ccc2sc(-c3ccccc3OC)c(-c3ccc(OCCN4CCCC4)cc3)c2c1 | inconclusive [cytotoxic, single point] | 
37 | Cc1cc(Cl)ccc1NC(=O)CN1CCC(C(O)(c2ccccc2)c2ccccc2)CC1 | inconclusive [cytotoxic, single point] | 
38 | CN(C)CC1CCC/C(=C\c2ccc(OC(=O)c3ccc(Cl)cc3)cc2)C1=O (centres undefined) | inconclusive [cytotoxic, partial curve, poor fit] | 
39 | CCSc1nnc(NC(=O)c2nc(S(=O)(=O)Cc3ccc(F)cc3)ncc2Cl)s1 | inconclusive [cytotoxic, single point] | 
40 | O=C1/C(=C/c2ccc(N3CCCC3)cc2)NC(=S)N1C1CC1 | active: 6.31 µM | 
41 | CCN1C(=O)[C@H]2[C@@H](c3ccc(-c4cccc(Cl)c4)c(OC)c3)N3CCC[C@@]3(C(=O)OC)[C@H]2C1=O | inconclusive [cytotoxic, partial curve, poor fit] | 
42 | COC(=O)c1ccc(NC(=O)C2C3C=CC(C3)C2C(=O)O)cc1 (centres undefined) | inconclusive [cytotoxic, single point] | 
43 | COc1ccc(NC(=O)Cc2ccc(-c3ccccc3)cc2)cn1 | active: 9.2 µM | 
44 | COc1ccc(Nc2nc(Nc3ccc(OC)cc3OC)nc(N3CCN(C)CC3)n2)c(OC)c1 |  | inactive: -22.9%
45 | O=C(Cc1ccccc1)Nc1cccc(-c2nc3ncccc3o2)c1 | inconclusive [cytotoxic, single point] | 
46 | CN(C)CCCNc1cc(-c2ccccc2)nc2cc(-c3cccc(F)c3)nn12 | inconclusive [cytotoxic, single point] | 

Row | SMILES | Potency | activity, negative = less viability
47 | COc1ccc(CNC(=O)C2=CC(c3ccc(C)cc3)=NS(=O)(=O)N2C)cc1 |  | inactive: 15.1%
48 | Cc1occc1C(=O)N1CCN(S(=O)(=O)c2ccc(F)cc2)CC1 |  | inactive: 6.57%
49 | CCc1ccc(NC(=O)C(C)Sc2nc(-c3ccco3)c(C#N)c(=O)[nH]2)cc1 (centres undefined) |  | inactive: -29.5%
50 | CCCCC(=O)NC(c1ccc(Cl)cc1Cl)c1ccc2cccnc2c1O (centres undefined) | inconclusive [cytotoxic, full curve, poor fit] | 
51 | OC(c1cccc(Cl)c1)c1ncc(-c2ccc(Oc3ccccc3)cc2)[nH]1 (centres undefined) | inconclusive [cytotoxic, single point] | 
52 | COCCNC(=O)C1(C)CCCN(Cc2ccc(OC)cc2)C1 (centres undefined) | inconclusive [rising, single point] | 
53 | CCOC(=O)C1=C(N)Oc2ccc3ccccc3c2C1c1cccnc1 (centres undefined) | inconclusive [cytotoxic, single point] | 
54 | N#Cc1c([N+](=O)[O-])cc([N+](=O)[O-])cc1S(=O)(=O)Cc1ccccc1 | active: 20.6 µM | 
55 | Cc1ccc(-c2cnc3c(Cl)c(C)nn3c2)cc1 |  | inactive: -7.51%
56 | CCc1nc2ccc(C(=O)NCCCn3ccnc3)cn2c1N(C)C(=O)COc1ccccc1 |  | inactive: 7.19%
57 | N#Cc1ccc(C(c2nnnn2CCc2ccccc2)N2CCCCCC2)cc1 (centres undefined) | inconclusive [cytotoxic, single point] | 
58 | COc1ccc(C(=O)/C=C/c2ccc(OCc3ccccc3)cc2)cc1CSCC(=O)O | inconclusive [cytotoxic, single point] | 
59 | CCc1nc2ccc(C(=O)Nc3cc(-c4ccccc4)ccc3OC)cn2c1N(CC)Cc1cccc(Br)c1 | inconclusive [cytotoxic, single point] | 
60 | O=C(COc1ccccc1Cl)N1CCN(c2ccc([N+](=O)[O-])c(N3CCCCC3)c2)CC1 |  | inactive: -1.79%
61 | CC(=O)Nc1ccc(-c2ccnc3c2CC(C)(C(=O)NCc2cccc(Cl)c2)O3)cc1 (centres undefined) | inconclusive [cytotoxic, partial curve, poor fit] | 
62 | COc1ccc(NC(=O)NC(C)c2ccccc2)cc1 (centres undefined) | inconclusive [rising, single point] | 
63 | COc1ccc(Nc2nc3cc(-c4ccccc4C)sc3c(=O)n2C)cc1OC | inconclusive [cytotoxic, partial curve] | 
64 | Cc1cc([N+](=O)[O-])ccc1-c1ccc(C2Nc3ccccc3C(=O)N2O)o1 (centres undefined) | inconclusive [cytotoxic, single point] | 
65 | COc1ccc(CCNC(=O)c2cc(-c3cc(C)cc(C)c3O)n[nH]2)cc1OC | inconclusive [cytotoxic, single point] | 
66 | CC(C)C[C@@H](C(=O)NC1CCN(Cc2ccccc2)CC1)N1C(=O)N2CCc3c([nH]c4ccccc34)[C@@]2(C)C1=O | inconclusive [cytotoxic, single point] | 
67 | CC(=O)NCCCN(Cc1ccc(Cl)c(Cl)c1)c1ccc(Br)cn1 | inconclusive [cytotoxic, single point] | 
68 | c1cnc2c(SCc3ccc(-c4nnco4)cc3)cccc2c1 |  | inactive: -12.9%
69 | COc1ccc(C2CC(c3ccccc3)=NN2C(=O)c2cccs2)cc1 (centres undefined) | inconclusive [cytotoxic, single point] | 
